Consider four molecules from the supplement of paper PMC11741623.

Holding throughout (test): yeast fitness gain over the viral ORF with no human partner (scaled fitness); higher = more likely to interact
Test [1] concerns the target SARS-CoV-2 E. As to the method: (§1)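 Split mouse DHFR complementation in pooled diploid yeast: human ORFeome clones carry one fragment and viral ORFs the other; barcoded lineages compete in 1 µg/mL methotrexate and fitness is read by barcode sequencing in up to three cultures.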
The target in test [2] is SARS-CoV-2 M. On the procedure: as §1
Test [3] deals with SARS-CoV-2 N. On the procedure:
as §1

Test [4] deals with SARS-CoV-2 NSP1. As to the method: as §1
For test [5], the target named is SARS-CoV-2 NSP10. As to the method: as §1
For test [6], the target named is SARS-CoV-2 NSP12. On the procedure: as §1
Test [7] has as its target SARS-CoV-2 NSP13. On the procedure: as §1
For test [8], the target named is SARS-CoV-2 NSP14. As to the method:
as §1

The target in test [9] is SARS-CoV-2 NSP15. As to the method:
as §1

For test [10], the target named is SARS-CoV-2 NSP16. As to the method:
as §1

In test [11] the target is SARS-CoV-2 NSP2. As to the method:
as §1

The target of test [12] is SARS-CoV-2 NSP4. On the procedure:
as §1

Test [13] concerns the target SARS-CoV-2 NSP5. On the procedure:
as §1

Test [14] deals with SARS-CoV-2 NSP6. On the procedure: as §1
Test [15] has as its target SARS-CoV-2 NSP7. On the procedure:
as §1

Test [16] deals with SARS-CoV-2 NSP8. As to the method: as §1
Test [17] deals with SARS-CoV-2 NSP9. As to the method:
as §1

The target of test [18] is SARS-CoV-2 ORF10. As to the method:
as §1

The target in test [19] is SARS-CoV-2 ORF3A. As to the method: as §1
Test [20] has as its target SARS-CoV-2 ORF3B. As to the method: as §1
In test [21] the target is SARS-CoV-2 ORF6. As to the method: as §1
The target of test [22] is SARS-CoV-2 ORF7A. On the procedure:
as §1

The target in test [23] is SARS-CoV-2 ORF7B. As to the method:
as §1

In test [24] the target is SARS-CoV-2 ORF8. On the procedure:
as §1

Test [25] addresses SARS-CoV-2 ORF9B. As to the method: as §1
The target in test [26] is SARS-CoV-2 ORF9Bwu (the 73-codon ORF). On the procedure: as §1
The target in test [27] is SARS-CoV-2 S. As to the method:
as §1

This is one part of the list. Interaction screen of human proteins with wild-type SARS-CoV-2 proteins by split-DHFR complementation in yeast, 1 µg/mL methotrexate. Value = fitness of the pair (three or more lineages) minus that of the viral protein without a human partner, on a scale set by negative (0) and fused positive (1) controls, mean of up to three cultures; higher = more likely to interact. Active = false discovery rate below 0.05 (one-sided t-test) in at least one culture. Nearly all pairs are not hits, and differences among them are mostly noise (correlation between cultures about 0.3); most hits were seen in one culture only. Human sequences are the Swiss-Prot entries looked up by gene name; the clone may be another isoform. NSP2 values were corrected by the authors for a growth advantage. Listed are human proteins with a hit and a random twelfth of the others.

B1: OAZ3, Q9UMX2 (protein)
chain: MPCKRCRPSVYSLSYIKRGKTRNYLYPIWSPYAYYLYCYKYRITLREKMLPRCYKSITYKEEEDLTLQPRSCLQCSESLVGLQEGKSTEQGNHDQLKELYSAGNLTVLATDPLLHQDPVQLDFHFRLTSQTSAHWHGLLCDRRLFLDIPYQALDQGNRESLTATLEYVEEKTNVDSVFVNFQNDRNDRGALLRAFSYMGFEVVRPDHPALPPLDNVIFMVYPLERDVGHLPSEPP
For B1, the yeast fitness gain was inactive: 0.0406 in test [1]; inactive: 0.0838 in test [2]; inactive: -0.336 in test [3]; inactive: -0.00282 in test [4]; inactive: 0.0571 in [5]; inactive: -0.0247 in [6]. Besides, the yeast fitness gain in test [7] is inactive: 0.0123; in [8] it was inactive: -0.0496; in test [9], inactive: 0.0385; in test [10], inactive: 0.0838; in [11], inactive: -0.15; in [12] it was inactive: -0.056. Also, the yeast fitness gain in [13] was inactive: 0.0425; in test [14], inactive: 0.00283; in test [15], inactive: 0.00779; in test [16] it was inactive: 0.0168; in test [17], inactive: -0.0267; in [18], inactive: 0.0129. In addition, the yeast fitness gain was inactive: -0.03 in test [19]; inactive: -0.0597 in test [20]; inactive: -0.00448 in [21]; inactive: -0.0364 in test [22]; inactive: 0.0134 in test [23]; inactive: -0.0297 in test [24]. In addition, the values for the yeast fitness gain in test [25], in test [26] and in test [27] were inactive: 0.0164, inactive: -0.0337 and inactive: 0.00996, respectively.

B2: CCND3, P30281 (protein)
chain: MELLCCEGTRHAPRAGPDPRLLGDQRVLQSLLRLEERYVPRASYFQCVQREIKPHMRKMLAYWMLEVCEEQRCEEEVFPLAMNYLDRYLSCVPTRKAQLQLLGAVCMLLASKLRETTPLTIEKLCIYTDHAVSPRQLRDWEVLVLGKLKWDLAAVIAHDFLAFILHRLSLPRDRQALVKKHAQTFLALCATDYTFAMYPPSMIATGSIGAAVQGLGACSMSGDELTELLAGITGTEVDCLRACQEQIEAALRESLREASQTSSSPAPKAPRGSSSQGPSQTSTPTDVTAIHL
For B2, the yeast fitness gain in test [1] was inactive: -0.0485; in [2] it was inactive: 0.034; in test [3] it was inactive: 0.0727; in test [4], inactive: -0.0253; in test [5], inactive: 0.0715; in [6], inactive: 0.044. Besides, the yeast fitness gain in [7] is inactive: 0.0392; in test [8], inactive: 0.114; in [9], inactive: -0.0511; in [10] it was inactive: -0.01; in test [11] it was inactive: -0.0891; in test [12], inactive: 0.133. Moreover, the yeast fitness gain was inactive: 0.0058 in [13]; inactive: 0.0618 in test [14]; inactive: -0.0117 in test [15]; inactive: -0.034 in test [16]; inactive: 0.0424 in test [17]; inactive: 0.0282 in test [18]. Further, the yeast fitness gain in test [19] was inactive: 0.0737; in [20], inactive: 0.0266; in test [21] it was inactive: 0.0375; in test [22], inactive: -0.00315; in test [23], inactive: 0.00886; in [24], inactive: 0.0149. Besides, the results for the yeast fitness gain in test [25], in [26] and in test [27] were inactive: 0.019, inactive: 0.0629 and inactive: -0.0335, respectively.

B3: C5orf54, Q8IZ13 (protein)
chain: MSKKRKWDDDYVRYWFTCTTEVDGTQRPQCVLCNSVFSNADLRPSKLSDHFNRQHGGVAGHDLNSLKHMPAPSDQSETLKAFGVASHEDTLLQASYQFAYLCAKEKNPHTVAEKLVKPCALEIAQIVLGPDAQKKLQQVPLSDDVIHSRIDEMSQDILQQVLEDIKASPLKVGIQLAETTDMDDCSQLMAFVRYIKEREIVEEFLFCEPLQLSMKGIDVFNLFRDFFLKHKIALDVCGSVCTDGASSMLGENSEFVAYVKKEIPHIVVTHCLLNPHALVIKTLPTKLRDALFTVVRVINFIKGRAPNHRLFQAFFEEIGIEYSVLLFHTEMRWLSRGQILTHIFEMYEEINQFLHHKSSNLVDGFENKEFKIHLAYLADLFKHLNELSASMQRTGMNTVSAREKLSAFVRKFPFWQKRIEKRNFTNFPFLEEIIVSDNEGIFIAAEITLHLQQLSNFFHGYFSIGDLNEASKWILDPFLFNIDFVDDSYLMKNDLAELRASGQILMEFETMKLEDFWCAQFTAFPNLAKTALEILMPFATTYLCELGFSSLLHFKTKSRSCFNLSDDIRVAISKKVPRFSDIIEQKLQLQQKSL
Take B3: the yeast fitness gain is inactive: 0.105 in test [1]; inactive: -0.00743 in [6]; inactive: -0.0356 in [7]; inactive: -0.506 in [11]; inactive: 0.0132 in [20]; inactive: 0.023 in test [21]. In addition, the yeast fitness gain in test [23] is inactive: -0.111.

B4: PA2G4, Q9UQ80 (protein)
chain: MSGEDEQQEQTIAEDLVVTKYKMGGDIANRVLRSLVEASSSGVSVLSLCEKGDAMIMEETGKIFKKEKEMKKGIAFPTSISVNNCVCHFSPLKSDQDYILKEGDLVKIDLGVHVDGFIANVAHTFVVDVAQGTQVTGRKADVIKAAHLCAEAALRLVKPGNQNTQVTEAWNKVAHSFNCTPIEGMLSHQLKQHVIDGEKTIIQNPTDQQKKDHEKAEFEVHEVYAVDVLVSSGEGKAKDAGQRTTIYKRDPSKQYGLKMKTSRAFFSEVERRFDAMPFTLRAFEDEKKARMGVVECAKHELLQPFNVLYEKEGEFVAQFKFTVLLMPNGPMRITSGPFEPDLYKSEMEVQDAELKALLQSSASRKTQKKKKKKASKTAENATSGETLEENEAGD
As to B4, the yeast fitness gain in test [1] was inactive: 0.0516; in [2], inactive: -0.123; in [4] it was inactive: 0.114; in [5], inactive: -0.253; in test [6], inactive: 0.0773; in test [7] it was inactive: 0.0447. Moreover, the yeast fitness gain in [11] is active: 0.545; in [12] it was inactive: -0.0677; in test [13] it was inactive: -0.148; in test [14], inactive: -0.2; in [15], inactive: -0.0469; in test [16] it was inactive: -0.0375. Further, the yeast fitness gain in test [17] is inactive: 0.0417; in test [18], inactive: -0.162; in [20], inactive: -0.0516; in [21], inactive: 0.0192; in test [23] it was inactive: -0.0767; in test [24] it was inactive: -0.198. Further, the yeast fitness gain in test [25] is inactive: -0.0712; in test [27] it was inactive: 0.241.
